Source: PubChem BioAssay AID2100 (National Center for Advancing Translational Sciences (NCATS), 2009)
The campaign covered roughly 300,000 compounds. About 1,200 (0.4%) were called active. Inconclusive results, whose numbers are uncertain, are shown with a selection of clear calls. Calls follow the shape of the dose curve; as a rule, active = well fitted inhibition curve with a large enough effect; inconclusive = small, poorly fitted or top-dose-only effect, or another doubt; inactive = no such curve, though single readings can be large or run the other way. Potencies beside an inconclusive call are fits to weak or partial responses and may not hold up.
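For activity change, negative = inhibition in this document: 0% = full enzyme reaction and -100% = no-enzyme basal signal.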
Potency is read from the fitted curve at half-maximal effect.

The compounds below were run against Lysosomal alpha-glucosidase (Homo sapiens) (UniProt P10253) (assay: qHTS Assay for Inhibitors and Activators of Human alpha-Glucosidase Cleavage of Glycogen). Details: recombinant GAA, glycogen substrate, Amplex Red glucose oxidase fluorescence; activity change, negative = inhibition: at 76.4 µM (top of the series) unless noted.
Procedure, shortened: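 qHTS, 1536-well; enzyme 4 nM final; cpd up to 77 uM; substrate bovine liver glycogen 30 ug; 50 mM citrate/phosphate pH 5.0, 0.01% Tween-20; 37 C, 40 min; Amplex Red detection 45 min RT; Hill fit → AC50.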
`CCc1cccc(NC(=S)Nc2cccc3ccccc23)c1` was tested, and the Potency was inconclusive: 50.1 µM [inhibitor, single point]. With `N#C/C(=C\c1cccnc1)C(=O)Nc1ccc(O)cc1F` the Potency was inconclusive: 28.2 µM [inhibitor, single point]. With `O=C(CN1C(=O)CCC1=O)NNc1ccc2ccccc2c1` the Potency was active: 11.2 µM. In the case of `O=C(C[n+]1ccc(C(=O)N/N=C/c2ccc(O)cc2)cc1)c1ccccc1`, the Potency is reported as inconclusive: 28.2 µM [inhibitor, partial curve]. With `Cc1ccc(NC(=O)c2ccc(CNS(=O)(=O)c3ccc4c(c3)C(C)(C)C(=O)N4C)cc2)cc1C` the Potency was “inactive”. With `O=C1C2Sc3[nH]c(=O)sc3C(c3ccccc3)C2C(=O)N1c1ccccc1` (stereo unspecified) the Potency was inconclusive: 22.4 µM [inhibitor, partial curve]. With `COc1ccc(/C=N/NC(=O)CC(=O)N/N=C/c2ccc(OC)cc2)cc1` the Potency was “inactive”. `COc1ccc(N/C=C/C(=O)c2ccccc2)cc1` was tested, and the Potency was inconclusive: 14.1 µM [inhibitor, partial curve]. For `COCCn1c(NC(=S)NC(=O)C23CC4CC(CC(C4)C2)C3)cc(=O)[nH]c1=O`, the Potency was “inactive”. For `O=S(=O)(NNc1nccc(C(F)(F)F)n1)c1cccc(Cl)c1Cl`, the Potency was inconclusive: 17.8 µM [inhibitor, partial curve]. For `O=C(NNC1CC(=O)N(c2ccc(Cl)cc2)C1=O)c1ccccn1` (stereo unspecified), the Potency was inconclusive: 12.6 µM [inhibitor, partial curve]. In the case of `CCOC(=O)c1cnc2cc(C(F)(F)F)ccc2c1N1CCN(c2ccc(F)cc2)CC1`, the Potency is reported as “inactive”. With `Cc1cccc(-n2c3c(cc(-c4nc(-c5ccc(Cl)cc5)cs4)c2=O)C(=O)CC(C)(C)C3)c1` the Potency was “inactive”. In the case of `COc1cc(/C=N/Nc2nc3c(c(=O)n(C)c(=O)n3C)n2Cc2ccccc2)ccc1OC(=O)c1ccco1`, the Potency is reported as inconclusive: 14.1 µM [inhibitor, partial curve]. `COc1ccccc1-c1nc(C#N)c(NCc2ccc(F)cc2)o1` was tested, and the Potency was inconclusive: 22.2 µM [inhibitor, single point]. For `CCCCCCC(=O)N(O)C1CC(=O)N(c2ccc(Br)cc2)C1=O` (stereo unspecified), the Potency was “inactive”. `N#Cc1sc2nc(-c3cccs3)cc(-c3ccc(Cl)cc3)c2c1N` was tested, and the Potency was “inactive”. For `O=C(O)c1ccc(N/N=C/c2ccc(-c3ccc(Br)cc3)o2)cc1`, the Potency was inconclusive: 50.1 µM [inhibitor, single point]. In the case of `COCCCNC(=O)/C(C#N)=C/c1c(N2CCN(C)CC2)nc2c(C)cccn2c1=O`, the Potency is reported as “inactive”. In the case of `CCC/C=N/NC(=O)c1ccc(F)cc1`, the Potency is reported as inconclusive: 25.1 µM [inhibitor, partial curve]. In the case of `COc1ccc(CCNCC(O)c2ccccc2)cc1` (stereo unspecified), the Potency is reported as inconclusive: 25.1 µM [activator, partial curve, poor fit]. With `CO[C@H]1C=CO[C@@]2(C)Oc3c(C)c(O)c4c(O)c(c(C=NN5CCN(C6CCCC6)CC5)c(O)c4c3C2=O)NC(=O)C(C)=CC=C[C@H](C)[C@H](O)[C@@H](C)[C@@H](O)[C@@H](C)[C@H](OC(C)=O)[C@@H]1C` the Potency was inconclusive: 39.8 µM [inhibitor, single point]. For `Cc1ccc(NC(=O)c2cnc3ccccc3n2)cc1C`, the Potency was inconclusive: 7.08 µM [inhibitor, single point]. With `CCOc1cc(/C=N/NC(=O)CCCC(=O)NC2CCCCC2)ccc1O` the Potency was inconclusive: 31.6 µM [inhibitor, single point]. With `C=CCn1cc(/C=N/Nc2nc3ccccc3[nH]2)c2ccccc21` the Potency was active: 28.2 µM. With `COc1ccc(NC(=S)NCc2cccn2C)cc1` the Potency was inconclusive: 15.8 µM [inhibitor, partial curve]. `Cc1csc(Nc2ccc(Cl)cc2)n1` was tested, and the Potency was inconclusive: 9.92 µM [inhibitor, full curve]. For `Nc1nonc1N/N=C/c1c(O)ccc2ccccc12`, the Potency was active: 9.92 µM. `CCOC(=O)c1ccc(N2C(=O)CC(Nc3ccc(O)cc3)C2=O)cc1` (stereo unspecified) was tested, and the Potency was active: 10 µM. With `CC(C)OC(=O)C(=O)NNc1ccccc1` the Potency was inconclusive: 3.55 µM [inhibitor, full curve]. In the case of `Cc1cc(C)c(NC(=O)CSc2nc(COc3ccccc3)nc3ccccc23)c(C)c1`, the activity change, negative = inhibition is reported as inconclusive: 34.5% [activator]. `Nc1ccc(S(N)(=O)=O)cc1N` was tested, and the Potency was inconclusive: 39.5 µM [inhibitor, single point]. For `Cc1cc[n+](-c2[nH]c(=O)sc2/C=N/NC([S-])=Nc2ccccc2)cc1`, the Potency was inconclusive: 31.6 µM [inhibitor, single point]. For `CC(/C=N/NC(=O)Cc1cc(=O)[nH][nH]1)=C\c1ccccc1`, the Potency was inconclusive: 14 µM [inhibitor, partial curve]. `COc1ccc(NC(=S)Nc2ccc3nccnc3c2)cc1` was tested, and the Potency was “inactive”. For `Cc1n[nH]c(C)c1S(=O)(=O)N1CCCC(C(=O)Nc2ccc(Cl)cc2)C1` (stereo unspecified), the Potency was “inactive”. For `COCCN1CCN(C(=O)C2CCC(=O)N(CCc3ccccc3)C2)CC1` (stereo unspecified), the Potency was “inactive”. `COc1cccc2[nH]c3c(N4CCCCC4)ncnc3c12` was tested, and the activity change, negative = inhibition was inconclusive: 48.4% [activator]. For `Nc1c(Cl)ncnc1N/N=C/c1cccnc1`, the Potency was inconclusive: 25.1 µM [inhibitor, partial curve]. For `CC(=O)N1CCC2(CC1)NC(=O)N(c1ccccc1)N2`, the Potency was inconclusive: 11.1 µM [inhibitor, partial curve]. `Cc1ccc(C)n1-c1ccccc1N1CCCCC1` was tested, and the Potency was inconclusive: 35.5 µM [inhibitor, partial curve]. For `O=C(CSc1ncc(C(F)(F)F)cc1Cl)N1CCN(S(=O)(=O)c2ccc(Cl)cc2)CC1`, the Potency was “inactive”. With `NNC(=O)c1oc2nc(-c3cccs3)cc(-c3ccco3)c2c1N` the Potency was inconclusive: 5.01 µM [inhibitor, single point]. With `O=C(C1=C[C@@H](c2ccc(Br)cc2)C[C@@H](OCc2ccc(CO)cc2)O1)N1CCN(Cc2ccccc2)CC1` the Potency was “inactive”. `Cc1ccc(NCC(=O)N/N=C/c2ccncc2)cc1` was tested, and the Potency was inconclusive: 35.5 µM [inhibitor, partial curve]. `N/C(=N\OC(=O)c1ccccc1Cl)c1ccccn1` was tested, and the Potency was “inactive”. With `Cc1ccc(CSc2nnc(-c3ccccc3N)c(=O)[nH]2)cc1` the Potency was inconclusive: 39.5 µM [inhibitor, single point]. In the case of `COc1cccc2c(N/N=C/c3ccc(O)c(O)c3)cc(C)nc12`, the Potency is reported as inconclusive: 31.6 µM [inhibitor, single point]. In the case of `COc1ccc(NC(=O)CS(=O)(=O)c2ccc(C)cc2)c(OC)c1`, the Potency is reported as “inactive”. For `O=[N+]([O-])c1ccccc1/C=N/n1c(C2CCCCC2)n[nH]c1=S`, the Potency was inconclusive: 39.8 µM [inhibitor, partial curve]. In the case of `Cc1nnc(NNS(=O)(=O)c2ccc(Cl)cc2)[nH]c1=O`, the Potency is reported as inconclusive: 35.5 µM [inhibitor, partial curve]. For `COc1ccc(-c2cc(C#N)nc(NN)n2)cc1`, the Potency was inconclusive: 35.5 µM [inhibitor, single point]. For `Nc1n[nH]c(C2CC2)c1N=Nc1ccc(Cl)c(Cl)c1`, the Potency was “inactive”. `COc1cccc(C2C3=C(CCCC3=O)Nc3[nH]n(-c4ccccc4)c(=O)c32)c1` (stereo unspecified) was tested, and the Potency was inconclusive: 20 µM [inhibitor, single point]. `S=C1NCCc2ccccc2C1c1ccccc1` (stereo unspecified) was tested, and the Potency was inconclusive: 50.1 µM [inhibitor, single point]. In the case of `CCOc1cccc(C(=O)N(Cc2ccc(N(C)C)cc2)CC2CCCO2)c1` (stereo unspecified), the Potency is reported as inconclusive: 35.5 µM [inhibitor, partial curve]. In the case of `COc1cc(/C=N/Nc2ccccc2)ccc1OC(=O)c1cccs1`, the Potency is reported as inconclusive: 31.6 µM [inhibitor, single point]. With `CCN1CCc2c(sc(N)c2C(N)=O)C1` the Potency was inconclusive: 31.6 µM [activator, single point]. For `COc1ccc(OC)c(C2NC(=O)c3sc(=S)n(-c4ccccc4)c3N2)c1` (stereo unspecified), the Potency was inconclusive: 39.8 µM [inhibitor, partial curve]. `CCCCCC(O)(CCCCC)C(=O)NNc1ccccc1` was tested, and the Potency was inconclusive: 24.9 µM [inhibitor, partial curve]. With `COCCCN1C(=O)C(=O)/C(=C(/O)c2ccccc2)C1c1ccc(N(C)C)cc1` (stereo unspecified) the Potency was inconclusive: 9.92 µM [inhibitor, single point]. `Nc1c(Cl)ncnc1N/N=C/c1ccc(O)cc1` was tested, and the Potency was inconclusive: 20 µM [inhibitor, partial curve]. With `Cc1cccc(NS(=O)(=O)c2ccc3c(c2)[C@H]2C=CC[C@H]2[C@@H](c2ccc(F)cc2)N3)c1` the Potency was inconclusive: 35.5 µM [activator, single point]. With `COc1ccc(OC)c(Cc2nnc(CCC(=O)NCc3ccc(C)s3)o2)c1` the Potency was active: 10 µM. `Oc1ccc(C2=CSC3=NCCN23)cc1O` was tested, and the Potency was inconclusive: 2.49 µM [inhibitor, partial curve]. `Oc1ccc(/C=N/Nc2cc(N3CCCC3)nc(N3CCCC3)n2)cc1` was tested, and the Potency was active: 24.9 µM. With `Cc1occc1C(=O)NNC(=S)NCC(C)C` the Potency was inconclusive: 25.1 µM [inhibitor, partial curve]. In the case of `COc1ccc(-c2cc(=O)oc3cc(OC(C)C(=O)NC(Cc4c[nH]c5ccc(O)cc45)C(=O)O)ccc23)cc1` (stereo unspecified), the Potency is reported as inconclusive: 1 µM [inhibitor, full curve]. `COc1cccc(/C=N/NC(=O)C(C)n2nc(C)c([N+](=O)[O-])c2C)c1O` (stereo unspecified) was tested, and the Potency was “inactive”. In the case of `NNC(=O)c1cc2c(s1)-c1cc(Cl)ccc1SC2`, the Potency is reported as inconclusive: 24.9 µM [inhibitor, partial curve]. With `Cc1cccc(N/N=C/c2ccc(O)c(O)c2O)c1` the Potency was inconclusive: 14.1 µM [inhibitor, partial curve].
